The text below walks through data of patent US20180305437A1 (Affibody, published 2018).

In general, IC50 refers to the concentration at which inhibition is half-maximal. A high value points to lower potency. For orientation: EC50 means the concentration at which the effect is half-maximal. A lower EC50 goes with a more potent agent. The Kd is the constant that tells how readily two partners part at equilibrium. A lower Kd goes with higher affinity. The koff is a measure of how fast the partners let go of each other. Low values mean slow dissociation, high ones fast dissociation. For orientation: kon means the rate constant with which the complex forms.

To fix the notation:
T1: human B7-H4 (R&D Systems, cat. no. 6576-B7-50) (human, UniProt Q7Z7D3 29-258)
T1 construct: Bought; biotinylated in ELISA, amine-coupled in Biacore; also called hB7-H4
T1 sequence (looked up): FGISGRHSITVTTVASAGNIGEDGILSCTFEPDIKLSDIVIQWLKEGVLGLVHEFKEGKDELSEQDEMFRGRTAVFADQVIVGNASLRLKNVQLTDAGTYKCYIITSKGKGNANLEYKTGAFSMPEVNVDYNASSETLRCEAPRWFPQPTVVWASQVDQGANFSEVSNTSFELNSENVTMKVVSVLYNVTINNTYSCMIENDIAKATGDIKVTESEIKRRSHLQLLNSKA

T2: human B7-H3 Fc Chimera (R&D Systems, cat. no. 1027-B3-100) (human, UniProt Q5ZPR3-2 29-245)
T2 construct: Bought; biotinylated in ELISA, amine-coupled in Biacore; also called hB7-H3; not shown: Fc part of the bought Fc chimera; not described
T2 sequence (looked up): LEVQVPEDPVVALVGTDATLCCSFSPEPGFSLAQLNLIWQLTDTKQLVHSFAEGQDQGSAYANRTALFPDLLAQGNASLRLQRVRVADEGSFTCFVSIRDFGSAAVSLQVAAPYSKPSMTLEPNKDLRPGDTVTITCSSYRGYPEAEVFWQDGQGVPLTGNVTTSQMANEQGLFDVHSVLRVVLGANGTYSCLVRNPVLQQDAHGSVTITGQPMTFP

T3: human PD-L2 Fc Chimera (R&D Systems, cat. no. 1224-PL-100) (human, UniProt Q9BQ51 20-219)
T3 construct: Bought; biotinylated in ELISA, amine-coupled in Biacore; also called hPD-L2; not shown: Fc part of the bought Fc chimera; not described
T3 sequence (looked up): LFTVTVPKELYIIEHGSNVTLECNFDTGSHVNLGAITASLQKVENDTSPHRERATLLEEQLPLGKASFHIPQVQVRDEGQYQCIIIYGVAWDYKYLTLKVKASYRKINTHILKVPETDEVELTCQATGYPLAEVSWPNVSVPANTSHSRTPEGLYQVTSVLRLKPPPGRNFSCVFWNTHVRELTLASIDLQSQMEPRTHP

B1: His6-tagged Z variant Z13166 (SEQ ID NO:1) (designed binder)
chain: MGSSHHHHHHLQVDAKYAKERTVAVWEIVQLPNLTAWQKGAFINKLHDDPSQSSELLSEAKKLNDSQAPKVD
notes: Monomeric; also called His-tagged Z13166
B2: His6-tagged Z variant Z13398 (SEQ ID NO:4) (designed binder)
chain: B1 chain with V23M, V25T, W37R, N44W
notes: Monomeric; also called His-tagged Z13398
B3: His6-tagged Z variant Z13359 (SEQ ID NO:3) (designed binder)
chain: B1 chain with V23I, V29M, Q30D, A36S, K39R, N44D
notes: Monomeric; also called His-tagged Z13359
B4: His6-tagged Z variant Z13178 (SEQ ID NO:2) (designed binder)
chain: B1 chain with V23W, V29M, Q30D, W37G, K39R
notes: Monomeric; also called His-tagged Z13178
B5: Z13166 (SEQ ID NO:1) as fusion to ABD, periplasmic extract (designed binder)
chain: AQHDEALEVDAKYAKERTVAVWEIVQLPNLTAWQKGAFINKLHDDPSQSSELLSEAKKLNDSQAPKVDYVLAEAKVLANRELDKYGVSDYYKNLINNAKTVEGVKALIDEILAALPYVPG
notes: domain: ABD, GA3 of protein G
B6: Z13359 (SEQ ID NO:3) as fusion to ABD, periplasmic extract (designed binder)
chain: B5 chain with V19I, V25M, Q26D, A32S, K35R, N40D
notes: domain: ABD, GA3 of protein G
B7: Z13398 (SEQ ID NO:4) as fusion to ABD, periplasmic extract (designed binder)
chain: B5 chain with V19M, V21T, W33R, N40W
notes: domain: ABD, GA3 of protein G
B8: Z13178 (SEQ ID NO:2) as fusion to ABD, periplasmic extract (designed binder)
chain: B5 chain with V19W, V25M, Q26D, W33G, K35R
notes: domain: ABD, GA3 of protein G

Changes are numbered by the printed parent chain.

The target of the first experiment is T1, human B7-H4 (R&D Systems, cat. no. …). Kind of experiment: SPR (Biacore 2000), target immobilized on CM5, Z variant injected. On the procedure: (§1) One flow cell surface on each chip was activated and deactivated for use as blank during analyte injections. In the kinetic experiment, HBS-EP was used as running buffer and the flow rate was 50 μl/min. The analytes, i.e. the Z variants, were each diluted in HBS-EP buffer within a concentration range of 1000 to 0.01 nM and injected for 5 min, followed by dissociation in running buffer for 15-25 min. After dissociation, the surfaces were regenerated with one or two injections of 0.1% SDS. Kinetic constants were calculated from the sensorgrams using the Langmuir 1:1 model of BiaEvaluation software 4.1 (GE Healthcare).
As for B1, the binding result is recorded as “no binding (tested: concentration range of 1000 to 0.01 nM)”.
Turning to B2, the binding result is reported as “no binding (tested: concentration range of 1000 to 0.01 nM)”.
Same read-out and setting: in the case of B3 it was “no binding (tested: 500 nM)”.
B4: the binding result is reported as “no binding (tested: 500 nM)”.

Another experiment addresses T2, human B7-H3 Fc Chimera (R&D Systems, …). Described as above. On the procedure:
as §1
For B1, the binding result was “no binding (tested: concentration range of 1000 to 0.01 nM)”.
On the same count and under the same terms, the value for B2 was “no binding (tested: concentration range of 1000 to 0.01 nM)”; that for B3 was “no binding (tested: 500 nM)”.
Same read-out and setting: the value for B4 was “no binding (tested: 500 nM)”.

Another experiment addresses T3, human PD-L2 Fc Chimera (R&D Systems, …). The experiment is described as above. On the procedure: as §1
On to B1, for which the binding result is listed as “no binding (tested: concentration range of 1000 to 0.01 nM)”.
On the same count and under the same terms, the value for B2 was “no binding (tested: concentration range of 1000 to 0.01 nM)”; that for B3 was “no binding (tested: 500 nM)”.
Consider B4, for which the binding result is listed as “no binding (tested: 500 nM)”.

Another experiment addresses T1, human B7-H4 (R&D Systems, cat. no. …). Put plainly: ELISA: Z variant-ABD fusion captured on anti-ABD antibody, biotinylated control protein added at 8 nM. On the procedure:
(§2) Half-area 96-well ELISA plates (Costar, cat. no. 3690) were coated at 4° C. overnight with 2 μg/ml of an anti-ABD goat antibody (produced in-house) diluted in coating buffer (50 mM sodium carbonate, pH 9.6; Sigma, cat. no. C3041). The antibody solution was poured off and the wells were washed in water and blocked with 100 μl of PBSC (PBS supplemented with 0.5% casein; Sigma, cat. no. C8654) for 1 to 3 h at RT. The blocking solution was discarded and 50 μl periplasmic solutions, diluted 1:1 with PBST 0.05%, were added to the wells and incubated for 1.5 to 2.5 h at RT under slow agitation. As a blank control, PBST 0.05% was added instead of a periplasmic sample. The supernatants were poured off and the wells were washed 4 times with PBST 0.05%. […] Streptavidin conjugated HRP (Thermo Scientific, cat. no. N100) diluted 1:30,000 in PBSC, was added to the wells and the plates were incubated for approximately 1 h. After washing as described above, 50 μl ImmunoPure TMB substrate (Thermo Scientific, cat. no. 34021) was added to the wells and the plates were treated according to the manufacturer's recommendations.
(§3) As a background control, all Z variants were also assayed with no target protein added. […] Periplasm containing the ABD moiety only was used as a negative control.
On the technique in general: ELISA stands for enzyme-linked immunosorbent assay.
Turning to B5, the binding result is on record as “no binding (tested: 8 nM)”.
Take B6: the binding result is reported as “no binding (tested: 8 nM)”.
Still for that read-out and setting: in the case of B7 it was “no binding (tested: 8 nM)”.

Another experiment deals with T2, human B7-H3 Fc Chimera (R&D Systems, …). The experiment is described as above. On the procedure: as §2, §3
Take B5: the binding result is “no binding (tested: 8 nM)”.
Still for that read-out and setting: the value for B6 was “no binding (tested: 8 nM)”; that for B7 was “no binding (tested: 8 nM)”.

In another experiment the target is T3, human PD-L2 Fc Chimera (R&D Systems, …). The description is as above. On the procedure:
as §2, §3
For the molecule B5, the binding result was “no binding (tested: 8 nM)”.
Still for that read-out and setting: the value for B6 was “no binding (tested: 8 nM)”; that for B7 was “no binding (tested: 8 nM)”.

A further experiment concerns the target T4, human PD-L1 Fc Chimera (R&D Systems, cat. no. 156-B7-100) (human, UniProt Q9NZQ7 19-239).
T4 construct: Biotinylated (Sulfo-NHS-LC-Biotin) in ELISA and AlphaLISA; amine-coupled to a CM5 chip in Biacore; also called hPD-L1; B7-H1; not shown: Fc part (and any linker) of the bought Fc chimera; not described
T4 sequence (Q9NZQ7 19-239 limits assumed, change not shown): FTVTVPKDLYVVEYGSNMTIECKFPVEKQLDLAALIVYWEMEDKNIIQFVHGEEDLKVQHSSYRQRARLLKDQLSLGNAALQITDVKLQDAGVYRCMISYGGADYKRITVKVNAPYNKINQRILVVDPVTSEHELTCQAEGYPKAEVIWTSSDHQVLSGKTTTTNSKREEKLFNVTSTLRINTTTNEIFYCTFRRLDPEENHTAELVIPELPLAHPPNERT
Put plainly: AlphaLISA blocking assay, 10 nM biotinylated hPD-L1, competitor hPD-1 on Acceptor beads. On the procedure:
(§4) Finally, streptavidin coated Donor beads (Perkin Elmer, cat. no. 6772002) were added to a final concentration of 40 μg/ml and incubated for 30 min. All incubations were performed at RT in the dark. The plate was analyzed in the EnSpire instrument and the IC50 values were calculated using GraphPad Prism 5.
A general note: Bead proximity is the source of the signal in Alpha formats.
On to B1, for which the concentration for half-maximal inhibition (IC50) is 6.2 nM.
Molecule B2 gave a 50% inhibitory concentration (IC50) of 4.9 nM.

For another experiment, the target named is T4, human PD-L1 Fc Chimera (R&D Systems, …). Kind of experiment: ELISA titration, Z-ABD captured by anti-ABD antibody, dilution series of biotinylated hPD-L1. On the procedure:
as §2, §3
B5: the EC50 worked out at 0.19 nM.
In turn, B6 gave an EC50 of 0.3 nM.
Still for that read-out and setting: the value for B7 was 0.15 nM; that for B8 was 0.26 nM.

The target is the same in the next experiment. Kind of experiment: AlphaLISA blocking assay, 8 nM biotinylated hPD-L1, competitor hPD-1 on Acceptor beads. On the procedure:
as §4
Take B3: the IC50 was found to be 1.8 nM.
The molecule B4 showed an IC50 of around 10 nM.

For another experiment, the target named is T5, rhesus PD-L1/Fc Chimera (Sino Biological Inc., cat. no. 90251-C02H) (rhesus monkey, UniProt F6PJN1 19-239).
T5 construct: Bought; amine-coupled to a CM5 chip; also called RhPD-L1; rhesus monkey PD-L1; not shown: Fc part of the bought Fc chimera; not described
T5 sequence (F6PJN1 entry or part of it C02H C02H): as the sequence (Q9NZQ7 19-239 limits assumed, change not shown) above, with A33T, A34S, S62N, R68Q, Q82R, F173L, T185A, T192I, H215L counted along it
Put plainly: SPR (Biacore 2000), RhPD-L1 immobilized on CM5, approximate (one concentration, 5 nM). On the procedure:
as §1
B3 displayed a dissociation constant Kd of 20 nM, a koff of 0.0097 s⁻¹ and a kon of 490000 M⁻¹ s⁻¹.
The molecule B4 came in with a Kd of 22 nM, a koff of 0.0025 s⁻¹ and a kon of 110000 M⁻¹ s⁻¹.

In a further experiment the target is T4, human PD-L1 Fc Chimera (R&D Systems, …). Put plainly: SPR (Biacore 2000), hPD-L1 immobilized on CM5, 1:1 model, approximate (5 and 50 nM). On the procedure:
as §1
(In general: In SPR one partner is held on a chip, and binding of the other changes the refractive index at the surface.)
On to B1, for which the affinity, expressed as Kd, was 0.4 nM; the koff amounted to 0.0026 s⁻¹; the kon worked out at 7.4e+06 M⁻¹ s⁻¹.
Taken in the same sequence, the figures for B2 were 0.73 nM, 0.0037 s⁻¹ and 5.1e+06 M⁻¹ s⁻¹.
Take B3: the Kd came to 15 nM, the koff worked out at 0.028 s⁻¹ and the kon stood at 1.9e+06 M⁻¹ s⁻¹.
B4 showed a Kd of at most 540 nM and a koff of at most 1e-05 s⁻¹.

The next experiment deals with T6, mouse PD-L1 Fc Chimera (R&D Systems, cat. no. 1019-B7) (mouse, UniProt Q9EP73 19-238).
T6 construct: Bought; amine-coupled to a CM5 chip; also called mPD-L1; not shown: Fc part of the bought Fc chimera; not described
T6 sequence (Q9EP73 19-238, change not shown): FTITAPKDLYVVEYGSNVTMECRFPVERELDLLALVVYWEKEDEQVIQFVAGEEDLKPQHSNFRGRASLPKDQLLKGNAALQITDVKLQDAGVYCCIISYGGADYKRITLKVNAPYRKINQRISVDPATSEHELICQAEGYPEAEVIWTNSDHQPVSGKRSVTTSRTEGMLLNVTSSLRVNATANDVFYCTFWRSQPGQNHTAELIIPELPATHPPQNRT
Put plainly: SPR (Biacore 2000), mPD-L1 immobilized on CM5, Z variant injected. On the procedure:
as §1
Take B1: the binding result was “no binding (tested: concentration range of 1000 to 0.01 nM)”.
The same measure, in the same setting: in the case of B2 it was “no binding (tested: concentration range of 1000 to 0.01 nM)”.
